According to the supplement of paper PMC9151546:
Many values rest on one well or one pass, so single values are uncertain.

Columns and labels:
CHO-K1 [1] = assay: hypodiploid nuclei frequency (% of nucleated events); higher = more hypodiploid events (aneugenic)
Description: (§1)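 Flow-cytometric in vitro micronucleus assay (Litron MicroFlow) in CHO-K1 cells in 96-well plates, 19 concentrations (4.5-200 µM, n=1 per concentration). Without S9, cells were exposed for 24 h and sampled at 48 h. With Aroclor 1254-induced rat liver S9, cells were exposed for 3-4 h and sampled at 27-28 h. Read-outs are %MN and %hypodiploid nuclei relative to nucleated events, and relative survival as the nuclei-to-bead ratio versus the 1% DMSO vehicle control (x100).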

CHO-K1 [2] = assay: micronucleus frequency (% of nucleated events); higher = more micronuclei (genotoxic)
CHO-K1 [3] = assay: relative survival (nuclei to bead ratio vs DMSO control) (% of vehicle control); higher = more surviving cells
Description: as §1
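Wherever hypodiploid nuclei frequency (% of nucleated events) is given: hypodiploid nuclei gated on a flow cytometer with 488 nm excitation after SYTOX Green staining, cultures at 37 °C, positive controls vinblastine without S9 and cyclophosphamide with S9.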
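Wherever micronucleus frequency (% of nucleated events) is given: cells lysed with nuclei stained by SYTOX Green, then micronucleus-gated events counted against nucleated events by flow cytometry with 488 nm excitation.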
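Wherever relative survival (nuclei to bead ratio vs DMSO control) is given: Lysed-cell nuclei stained with SYTOX Green and counted against counting beads by flow cytometry at 488 nm excitation, with vinblastine (no S9) and cyclophosphamide (plus S9) as positive controls.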

ClC1=C(Cl)C2(Cl)C3C4CC(C5OC45)C3C1(Cl)C2(Cl)Cl (stereo unspecified) [Endrin]
Conditions	hypodiploid nuclei frequency, CHO-K1 [1] [%]	micronucleus frequency, CHO-K1 [2] [%]	relative survival, CHO-K1 [3]
concentration: 4.5 (µM), S9 metabolic activation: with S9, exposure time: 3-4 hours	0.37	2.1	146
concentration: 4.5 (µM), S9 metabolic activation: without S9, exposure time: 24 hours	1.36	1.8	85.6
concentration: 5.63 (µM), S9 metabolic activation: with S9, exposure time: 3-4 hours	0.32	1.85	135
concentration: 5.63 (µM), S9 metabolic activation: without S9, exposure time: 24 hours	1.32	1.64	84.3
concentration: 7.04 (µM), S9 metabolic activation: with S9, exposure time: 3-4 hours	0.34	2.07	120
concentration: 7.04 (µM), S9 metabolic activation: without S9, exposure time: 24 hours	1.28	1.5	108
concentration: 8.8 (µM), S9 metabolic activation: with S9, exposure time: 3-4 hours	0.28	2.04	112
concentration: 8.8 (µM), S9 metabolic activation: without S9, exposure time: 24 hours	1.04	1.08	97.5
concentration: 11 (µM), S9 metabolic activation: with S9, exposure time: 3-4 hours	0.45	2.38	114
concentration: 11 (µM), S9 metabolic activation: without S9, exposure time: 24 hours	1.04	0.68	105
concentration: 13.7 (µM), S9 metabolic activation: with S9, exposure time: 3-4 hours	0.29	2.56	132
concentration: 13.7 (µM), S9 metabolic activation: without S9, exposure time: 24 hours	1.68	2.02	89.1
concentration: 17.2 (µM), S9 metabolic activation: with S9, exposure time: 3-4 hours	0.41	3.95	120
concentration: 17.2 (µM), S9 metabolic activation: without S9, exposure time: 24 hours	1.4	1.5	92.9
concentration: 21.5 (µM), S9 metabolic activation: with S9, exposure time: 3-4 hours	0.45	3.38	101
concentration: 21.5 (µM), S9 metabolic activation: without S9, exposure time: 24 hours	1	1.66	83.1
concentration: 26.8 (µM), S9 metabolic activation: with S9, exposure time: 3-4 hours	0.255	1.56	87.8
concentration: 26.8 (µM), S9 metabolic activation: without S9, exposure time: 24 hours	1.7	2.1	97.5
concentration: 33.6 (µM), S9 metabolic activation: with S9, exposure time: 3-4 hours	0.18	1.53	78.2
concentration: 33.6 (µM), S9 metabolic activation: without S9, exposure time: 24 hours	1.76	1.32	69.3
concentration: 41.9 (µM), S9 metabolic activation: with S9, exposure time: 3-4 hours	0.39	1.88	101
concentration: 41.9 (µM), S9 metabolic activation: without S9, exposure time: 24 hours	2.4	3	90
concentration: 52.4 (µM), S9 metabolic activation: with S9, exposure time: 3-4 hours	0.31	1.63	103
concentration: 52.4 (µM), S9 metabolic activation: without S9, exposure time: 24 hours	1.76	1.38	54.9
concentration: 65.5 (µM), S9 metabolic activation: with S9, exposure time: 3-4 hours	0.3	2.04	89.8
concentration: 65.5 (µM), S9 metabolic activation: without S9, exposure time: 24 hours	2.3	2.6	63
concentration: 81.9 (µM), S9 metabolic activation: with S9, exposure time: 3-4 hours	0.23	1.57	105
concentration: 81.9 (µM), S9 metabolic activation: without S9, exposure time: 24 hours	2.42	1.74	58.6
concentration: 102 (µM), S9 metabolic activation: with S9, exposure time: 3-4 hours	0.26	1.34	80.6
concentration: 102 (µM), S9 metabolic activation: without S9, exposure time: 24 hours	2.8	2.46	58.4
concentration: 128 (µM), S9 metabolic activation: with S9, exposure time: 3-4 hours	0.5	2.03	91.53
concentration: 128 (µM), S9 metabolic activation: without S9, exposure time: 24 hours	2.94	3.36	66.9
concentration: 160 (µM), S9 metabolic activation: with S9, exposure time: 3-4 hours	0.38	1.67	61.9
concentration: 160 (µM), S9 metabolic activation: without S9, exposure time: 24 hours	2.66	2.16	57.2
concentration: 200 (µM), S9 metabolic activation: with S9, exposure time: 3-4 hours	0.43	3.4	74.11
concentration: 200 (µM), S9 metabolic activation: without S9, exposure time: 24 hours	1.88	2.24	56.5

C[C@]12CC[C@@H]3c4ccc(O)cc4CC[C@H]3[C@@H]1CCC2=O [Estrone]
Conditions	hypodiploid nuclei frequency, CHO-K1 [1] [%]	micronucleus frequency, CHO-K1 [2] [%]	relative survival, CHO-K1 [3]
concentration: 4.5 (µM), S9 metabolic activation: with S9, exposure time: 3-4 hours	0.34	1.78	85.1
concentration: 4.5 (µM), S9 metabolic activation: without S9, exposure time: 24 hours	0.86	1.9	104
concentration: 5.63 (µM), S9 metabolic activation: with S9, exposure time: 3-4 hours	0.28	1.5	95.7
concentration: 5.63 (µM), S9 metabolic activation: without S9, exposure time: 24 hours	0.74	2.46	140
concentration: 7.04 (µM), S9 metabolic activation: with S9, exposure time: 3-4 hours	0.18	1.82	72.9
concentration: 7.04 (µM), S9 metabolic activation: without S9, exposure time: 24 hours	1.04	2.1	108
concentration: 8.8 (µM), S9 metabolic activation: with S9, exposure time: 3-4 hours	0.4	1.82	84.5
concentration: 8.8 (µM), S9 metabolic activation: without S9, exposure time: 24 hours	1.22	2.28	111
concentration: 11 (µM), S9 metabolic activation: with S9, exposure time: 3-4 hours	0.34	1.6	82.3
concentration: 11 (µM), S9 metabolic activation: without S9, exposure time: 24 hours	1.36	2.56	114
concentration: 13.7 (µM), S9 metabolic activation: with S9, exposure time: 3-4 hours	0.16	1.6	84.8
concentration: 13.7 (µM), S9 metabolic activation: without S9, exposure time: 24 hours	1.9	2.38	105
concentration: 17.2 (µM), S9 metabolic activation: with S9, exposure time: 3-4 hours	0.24	1.5	75
concentration: 17.2 (µM), S9 metabolic activation: without S9, exposure time: 24 hours	2.2	3.1	112
concentration: 21.5 (µM), S9 metabolic activation: with S9, exposure time: 3-4 hours	0.18	1.28	92.9
concentration: 21.5 (µM), S9 metabolic activation: without S9, exposure time: 24 hours	1.8	3.02	90.7
concentration: 26.8 (µM), S9 metabolic activation: with S9, exposure time: 3-4 hours	0.18	1.44	86.8
concentration: 26.8 (µM), S9 metabolic activation: without S9, exposure time: 24 hours	2.76	3.24	105
concentration: 33.6 (µM), S9 metabolic activation: with S9, exposure time: 3-4 hours	0.2	1.08	98.6
concentration: 33.6 (µM), S9 metabolic activation: without S9, exposure time: 24 hours	3.48	4.36	90.3
concentration: 41.9 (µM), S9 metabolic activation: with S9, exposure time: 3-4 hours	0.2	1.74	88
concentration: 41.9 (µM), S9 metabolic activation: without S9, exposure time: 24 hours	4.46	4.74	99.5
concentration: 52.4 (µM), S9 metabolic activation: with S9, exposure time: 3-4 hours	0.2	1.28	81.5
concentration: 52.4 (µM), S9 metabolic activation: without S9, exposure time: 24 hours	4.76	4.16	91.1
concentration: 65.5 (µM), S9 metabolic activation: with S9, exposure time: 3-4 hours	0.2	1.36	79.5
concentration: 65.5 (µM), S9 metabolic activation: without S9, exposure time: 24 hours	3.84	3.94	114
concentration: 81.9 (µM), S9 metabolic activation: with S9, exposure time: 3-4 hours	0.16	1.84	73.3
concentration: 81.9 (µM), S9 metabolic activation: without S9, exposure time: 24 hours	4.16	4.56	108
concentration: 102 (µM), S9 metabolic activation: with S9, exposure time: 3-4 hours	0.24	1.84	82.3
concentration: 102 (µM), S9 metabolic activation: without S9, exposure time: 24 hours	4.3	3.88	86.3
concentration: 128 (µM), S9 metabolic activation: with S9, exposure time: 3-4 hours	0.18	0.9	82.6
concentration: 128 (µM), S9 metabolic activation: without S9, exposure time: 24 hours	4.12	4.72	81.8
concentration: 160 (µM), S9 metabolic activation: with S9, exposure time: 3-4 hours	0.2	0.9	66.6
concentration: 160 (µM), S9 metabolic activation: without S9, exposure time: 24 hours	4.62	4.46	91.5
concentration: 200 (µM), S9 metabolic activation: with S9, exposure time: 3-4 hours	0.24	1.32	76.6
concentration: 200 (µM), S9 metabolic activation: without S9, exposure time: 24 hours	3.82	4.2	93.4
